# “And” between values parts separate entries of the source, which are not always exact repeats. Equal values may be shown once. Out of some 420,000 compounds screened, about 50,000 (12%) were called active. Inconclusive results, whose numbers are uncertain, are shown with a selection of clear calls. The call rests on the fitted dose curve; in most records, active means well fitted inhibition curve with a large enough effect; inconclusive means small, poorly fitted or top-dose-only effect; inactive means flat fitted curve, though single readings scatter. Potencies beside an inconclusive call are fits to weak or partial responses and may not hold up.
# Assay: qHTS for Inhibitors of human tyrosyl-DNA phosphodiesterase 1 (TDP1): qHTS in cells in presence of CPT; further: nearly all actives have a fitted effect of over 55% in size
# Conditions: chicken DT40 Tdp1-/-;hTDP1 cells + 20 nM CPT, ATP luminescence, 48 h; series mostly up to 46.2 µM
# Outline: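 Cell growth measured by CellTiter-Glo luminescence after a minimum 48 h, 37 C compound exposure with 20 nM CPT in Tdp1-knockout DT40 cells stably expressing hTDP1, seeded 400/well; qHTS titration format.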
# Potency means the concentration at half of the fitted maximal effect; tags describe the fitted curve by direction and shape.
row,SMILES,Potency
1,O=C(Nc1ccc(Cl)cc1)c1ccc(Br)cc1F,inactive
2,CCCOc1ccc(CNC(=O)Cn2c(=O)oc3ccccc32)cc1,"inactive and inconclusive: 13 µM [inhibitor, partial curve]"
3,Cc1ccccc1NC1=C(Cl)C(=O)OC1OC(=O)c1ccccc1C (centres undefined),"inconclusive: 25.9 µM [inhibitor, single point]"
4,COc1cc(Cl)c(NC(=O)CN(C)S(=O)(=O)c2ccc3[nH]c4c(c3c2)CCCC4)c(OC)c1,active: 23.1 µM
5,O=C(NCc1ccccn1)Nc1ccccc1C(F)(F)F,inactive
6,O=C(c1ccccc1F)N(Cc1cccnc1)Cc1cc2cc3c(cc2[nH]c1=O)OCCO3,"inconclusive: 29.1 µM [inhibitor, single point]"
7,Cn1ccc(=O)c2cc([N+](=O)[O-])ccc21,"inconclusive: 23.1 µM [inhibitor, single point]"
8,CSC1=NSC2=NC(=O)/C(=C/c3coc4ccccc4c3=O)C(=N)N12,"inconclusive: 14.6 µM [inhibitor, partial curve, poor fit]"
9,COc1cc(C(=O)NNC(=O)C2CCCC2)cc(OC)c1OC,inactive
10,COc1ccc(-n2c(SCC(=O)NCC3CCCO3)nc3ccccc3c2=O)cc1Cl (centres undefined),active: 8.2 µM
11,Cc1ccc(CNC(=O)c2cnn(-c3ccc(F)cc3F)c2C2CCN(C(=O)OC(C)(C)C)CC2)cc1,"inconclusive: 29.1 µM [inhibitor, single point]"
12,O=C(CSC1=NS(=O)(=O)c2ccccc2N1)Nc1nccs1,inactive
13,CCCCC(C(=O)NC1CCCC1)N(C(=O)c1snc(C(N)=O)c1N)c1ccc(OCC)cc1 (centres undefined),"inconclusive: 16.4 µM [inhibitor, single point]"
14,COc1cccc(CNC(=O)CC(c2ccc(C)cc2)N2Cc3ccccc3C2=O)c1 (centres undefined),"inconclusive: 29.1 µM [inhibitor, single point]"
15,Cc1cc(C)nc(-n2nc(C)c(Br)c2Nc2ccc(Br)cc2)n1,"inconclusive: 29.1 µM [inhibitor, single point]"
16,CC(C)CC1C(=O)N(Cc2cn(CCC3OCCCO3)nn2)CCS(=O)(=O)N1Cc1ccc(-c2ccc(Cl)c(Cl)c2)cc1 (centres undefined),active: 14.6 µM
17,COc1cc(/C=C(\C#N)C(=O)c2ccc(O)c(O)c2)cc(I)c1O,inactive
18,COc1ccc(OCc2nnc3n2N=C(c2ccc(OC)cc2)CS3)cc1,"inconclusive: 29.1 µM [inhibitor, single point]"
19,CSc1ccc(NC(=O)NCCN2CCc3ccccc3C2)cc1,"inconclusive: 16.4 µM [inhibitor, single point]"
20,CNC(=O)N(C1=NCC(C)S1)c1ccc(F)cc1F (centres undefined),"inconclusive: 23.1 µM [inhibitor, single point]"
21,COc1cc(-c2nc3cnccn3c2Nc2ccc(C(C)C)cc2)ccc1O,active: 18.4 µM and active: 9.2 µM
22,COc1ccc([C@H]2[C@H](C(=O)OC(C)(C)C)N3N=Cc4ccccc4C3C23C(=O)c2ccccc2C3=O)c(OC)c1 (some centres undefined),"inconclusive: 29.1 µM [inhibitor, partial curve, poor fit]"

row,SMILES,Potency
1,CCOc1cccc(C=NCCc2ccc(OC)c(OC)c2)c1O,inactive
2,S=C(Nc1ccc(Cl)cc1)NC1CC2CCCC(C1)N2C1CCCC1 (centres undefined),"inconclusive: 29.1 µM [inhibitor, single point]"
3,COc1ccc(O)c(CN2CC3CCC(CC3)C2)c1,active: 23.1 µM
4,O=C(COc1ccc(Cl)cc1Cl)N/N=C/c1ccc[nH]1,"inconclusive: 16.4 µM [inhibitor, partial curve]"
5,CCOc1ccc(-c2c(=O)n(OCc3ccccc3Br)c3ccccc3[n+]2[O-])c(OCC)c1,"inconclusive: 29.1 µM [inhibitor, single point]"
6,CCOC(=O)c1cc2c(=O)n3ccccc3nc2n(CC2CCCO2)c1=NC(=O)c1ccccc1F (centres undefined),inactive
7,CCc1ccc(C2=NN(CCC(=O)NCc3cccs3)C(=O)CC2)cc1,"inconclusive: 23.1 µM [inhibitor, single point]"
8,COc1ccccc1-c1ccnc2c(-c3ccc(Br)cc3)c(C)nn12,inactive
9,CC(NC(=O)C(Cc1ccccc1)=NO)c1ccccc1 (centres undefined),active: 20.6 µM
10,Cc1nn2c(=O)cc(COC(=O)c3ccc(NC(=O)c4ccc(C(C)(C)C)cc4)cc3)nc2s1,"inconclusive: 23.1 µM [inhibitor, single point]"
11,Cc1ccc(C)c(/C(O)=C2/C(=O)C(=O)N(CCN3CCOCC3)C2c2ccc(C)o2)c1 (centres undefined),inactive
12,Cc1ccc(Oc2ccc(Cl)cc2NC(=O)c2ccc(F)cc2F)cc1,inactive
13,CCOc1ncccc1C(=O)Nc1nc(SC)ns1,"inconclusive: 25.9 µM [inhibitor, single point]"
14,O=S(=O)(NC1CCCC1)c1ccc(S(=O)(=O)NC2CCCC2)cc1,"inconclusive: 23.1 µM [inhibitor, single point]"
15,COc1ccc(C(CNC(=O)CNC(=O)c2cccc(C)c2)N2CCCCC2)cc1 (centres undefined),inactive
16,Cn1cccc1C(=O)N1CCN(c2cccc(C(F)(F)F)c2)CC1,"inconclusive: 16.4 µM [inhibitor, partial curve]"
17,Cc1csc2nc(-c3cccc(NC(=O)c4ccccc4F)c3)cn12,"inconclusive: 23.1 µM [inhibitor, single point]"
18,CCOc1ccc(NS(=O)(=O)c2cc(Cl)ccc2OC)cc1,"inconclusive: 25.9 µM [inhibitor, single point]"
19,O=C(NCC(c1cccs1)N1CCOCC1)c1cc(-c2ccc(F)cc2)nc2ccccc12 (centres undefined),"inconclusive: 20.6 µM [inhibitor, partial curve, poor fit]"
20,Cc1cc(C(=O)CSCCCn2c(=O)[nH]c3ccccc32)c(C)n1C,"inconclusive: 14.1 µM [inhibitor, partial curve]"
21,COCCCn1c(=O)c2ccccc2n(Cc2ccccc2C)c1=O,"inconclusive: 29.1 µM [inhibitor, single point]"
22,O=C(C1=C[C@@H](c2csc3ccccc23)C[C@@H](OCc2ccc(CO)cc2)O1)N1CCOCC1,"inconclusive: 13 µM [inhibitor, partial curve]"
